Test results: the supplement of paper PMC3334620
In all, about 33,000 sequences were measured (“E-score (-0.5 to 0.5)”: median about -0.054, highest 2% from about 0.35 on). Some of the results follow.

Target: T1, Stb5 (UniProt P38699)
T1 sequence: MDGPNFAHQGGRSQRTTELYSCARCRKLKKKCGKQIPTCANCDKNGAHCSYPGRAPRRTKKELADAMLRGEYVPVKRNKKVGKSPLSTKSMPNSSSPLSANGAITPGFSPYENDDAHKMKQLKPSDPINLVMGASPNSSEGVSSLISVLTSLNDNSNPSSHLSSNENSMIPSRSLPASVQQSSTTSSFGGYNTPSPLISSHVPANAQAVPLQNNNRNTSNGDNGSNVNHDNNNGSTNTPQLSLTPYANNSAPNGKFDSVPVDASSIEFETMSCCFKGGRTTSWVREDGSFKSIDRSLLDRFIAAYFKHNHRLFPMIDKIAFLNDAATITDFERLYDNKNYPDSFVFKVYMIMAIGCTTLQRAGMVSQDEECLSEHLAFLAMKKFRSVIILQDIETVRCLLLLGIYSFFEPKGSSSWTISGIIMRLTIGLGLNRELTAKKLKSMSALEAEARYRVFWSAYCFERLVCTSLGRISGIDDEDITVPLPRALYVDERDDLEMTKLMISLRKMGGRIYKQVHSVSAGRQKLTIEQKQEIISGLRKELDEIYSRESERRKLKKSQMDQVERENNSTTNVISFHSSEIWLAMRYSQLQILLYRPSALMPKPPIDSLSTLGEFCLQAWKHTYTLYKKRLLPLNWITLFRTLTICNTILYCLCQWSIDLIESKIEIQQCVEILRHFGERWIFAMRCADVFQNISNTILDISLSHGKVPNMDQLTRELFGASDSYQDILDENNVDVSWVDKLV
Assay: PBM E-score (8-mer binding enrichment) (E-score (-0.5 to 0.5)); higher = stronger / more preferred TF binding; most listed sequences are background and not binding sites
Conditions: protein concentration: 200 nM; construct: GST-full length
Procedure, shortened: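 The E-score, a modified Wilcoxon-Mann-Whitney statistic, was computed by the Universal PBM Analysis Suite for every ungapped eight-base word pooled with its reverse complement. Scans behind it were normalised with masliner after bound GST-tagged yeast transcription factors were detected with fluorescent anti-GST. The proteins, at about 100-200 nM, had been applied to universal all-10-mer Agilent arrays made double-stranded by primer extension.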

| Sequence | PBM E-score |
| --- | --- |
| GGTCTGAA | -0.0414 |
| CTTGACTC | -0.182 |
| ACTTACGG | 0.185 |
| ATGAGGCC | 0.157 |
| GCTGTGGA | 0.12 |
| AAATGGCC | 0.179 |
| ACAGACGG | 0.139 |
| GATTATAA | 0.188 |
| ACTGGTCA | -0.221 |
| ATTGAGAG | 0.0147 |
| AAAGGATA | 0.0318 |
| AGCGGTAC | 0.347 |
| AAGGGCAT | -0.336 |
| GTCTCAAC | 0.0224 |
| AGTCCGAT | 0.414 |
| AATCACAA | -0.0148 |
| CGGCTCAC | 0.0532 |
| AATGGAAA | 0.0137 |
| CCGGGGAA | 0.25 |
| CGCGAGCC | 0.0577 |
| GCAGAGAA | -0.226 |
| GCCGGTCC | 0.324 |
| AGGGTACG | -0.25 |
| ATCCTAGA | -0.0568 |
| ACAGTAGA | -0.158 |

| Sequence | PBM E-score |
| --- | --- |
| CAGTAGGG | -0.244 |
| ACGTCCCC | -0.0202 |
| AGTGTGAC | -0.326 |
| GGCGCGGA | 0.326 |
| ATAGTCGG | 0.335 |
| CCGAAGCC | 0.0222 |
| CAGTGCGA | -0.208 |
| CCGGACTC | 0.342 |
| AGCTGATG | -0.0828 |
| AATCCCCT | -0.165 |
| AATTAGTC | 0.0901 |
| GCCCAACA | -0.0697 |
| CAGTACAG | -0.158 |
| CAGGCTTC | -0.167 |
| CCGTCGCA | 0.3 |
| CAATACGG | 0.202 |
| AGCAAGTG | -0.315 |
| CATTCGGG | 0.184 |
| ATTGGAGG | 0.00227 |
| GCGCGTCA | -0.0928 |
| CCGTCTCA | 0.229 |
| ACTAGCTC | -0.083 |
| CATGAAGG | -0.128 |
| AATTTATA | -0.0843 |
| GCATCCAA | -0.17 |

| Sequence | PBM E-score |
| --- | --- |
| CGACTACC | -0.0429 |
| ATGCGACC | 0.0704 |
| CTTGTTAC | -0.139 |
| ATGGTTAA | 0.0257 |
| AAGGCCTT | -0.163 |
| ACTCCTGC | 0.00247 |
| AAGCAGAG | -0.371 |
| ACGCGACA | 0.00921 |
| GCACTTTA | 0.0458 |
| ATCTCGGG | 0.0823 |
| GCAGACCA | -0.0212 |
| CATCTTAG | -0.16 |
| ATCGATAG | -0.138 |
| GTTTACCA | -0.153 |
| GAATAAAC | -0.00654 |
| AGCGTCCC | -0.123 |
| ATGCCAAT | -0.171 |
| GTAGGGGA | -0.115 |
| ATCACCTC | 0.0381 |
| ACGCGACT | 0.0289 |
| GCGTGGTA | -0.04 |
| ACGAGGAA | -0.12 |
| CCGACGAG | 0.321 |
| CGGGGCAG | 0.0716 |
| CTGGAGGA | -0.159 |

| Sequence | PBM E-score |
| --- | --- |
| CTTGAATC | -0.128 |
| TCATAGCA | -0.108 |
| GAGAACTA | -0.0787 |
| CACCCAAG | 0.0763 |
| CAAGATCC | 0.0549 |
| TACCCCCA | -0.114 |
| CGTGCTGA | -0.246 |
| AGCCTTAC | -0.165 |
| GCCGGGAA | 0.209 |
| AAACGACG | -0.12 |
| AACCTAGG | -0.107 |
| GATCCTGA | -0.0421 |
| CCGAGGGC | 0.149 |
| CAGCATCC | -0.0392 |
| GAGGTAGC | -0.0137 |
| CGGTCACA | 0.288 |
| AATAGTGT | 0.136 |
| ACAAAACG | 0.0772 |
| ACCGGTCC | 0.305 |
| GACTAACA | -0.0382 |
| CCTCTGTA | -0.0546 |
| AGCAGACC | -0.218 |
| AAGTCGTG | -0.195 |
| GCCAACAA | -0.212 |
| GGAGGGGA | -0.0609 |

| Sequence | PBM E-score |
| --- | --- |
| CCAGCAAG | -0.224 |
| TGCGGTAA | 0.278 |
| CCTATGCC | -0.122 |
| CACGGCCA | 0.181 |
| CGTGGGTA | 0.00915 |
| CTTGTCAC | -0.146 |
| AGATGTGG | -0.184 |
| AGCATGAC | -0.172 |
| CTGAGTCC | 0.104 |
| GCAAGTAC | -0.0806 |
| AATCGATC | -0.158 |
| GAAAGGGC | -0.0247 |
| AAGACAAG | -0.0293 |
| TTCTCCAA | -0.0481 |
| GCAAGGCC | 0.0215 |
| CGCTAACG | 0.203 |
| ATATCCAA | -0.208 |
| CCTAAACA | -0.0206 |
| AATTGTTC | -0.101 |
| TAGTCTAA | -0.0967 |
| CCGAGCGC | 0.185 |
| TGCCTTAA | -0.192 |
| CTACTACC | 0.216 |
| ACACGTAA | -0.104 |
| GGTTAAAA | 0.113 |

| Sequence | PBM E-score |
| --- | --- |
| AACCCGCC | 0.276 |
| GTGATGTA | 0.0144 |
| GGGAGACC | -0.126 |
| GTACAGAA | -0.0755 |
| CTCACGCC | 0.0191 |
| CACACTGA | -0.266 |
| GTCGCCCA | -0.158 |
| ATATAGGG | 0.118 |
| GCACTCGA | -0.0488 |
| ACTTATTA | -0.0696 |
| CATAAGCG | 0.0871 |
| ACCAGTTC | -0.0439 |
| CCTTGGCG | 0.0694 |
| CGAATAGA | -0.147 |
| GAGCTTAA | -0.143 |
| CCGGTACG | 0.211 |
| CTTCCACC | -0.0458 |
| AGGAGTAA | 0.00706 |
| AAGTTGGC | -0.165 |
| ATCAGGGA | -0.264 |
| GCTGTTCC | -0.0799 |
| ATGCTATG | -0.0998 |
| CCGGAGAA | 0.267 |
| ATCTAGTA | -0.294 |
| GTCCGTAA | 0.264 |

| Sequence | PBM E-score |
| --- | --- |
| GCCATCCA | -0.138 |
| CGTGTGAC | -0.0314 |
| GATTCGTA | 0.076 |
| AACAACCC | 0.0448 |
| CTGTCCTA | -0.166 |
| ATTCGTGC | 0.0377 |
| AATTCTGG | -0.172 |
| CATCGAAG | -0.0935 |
| CGATTGCA | -0.0032 |
| ACTCTAAG | 0.0244 |
| CCCCTTAG | -0.0287 |
| ACTAGTCG | 0.00798 |
| TGATAGAA | -0.156 |
| AATGTTGA | -0.149 |
| GATTCTTA | 0.0462 |
| AAAGGCTT | -0.156 |
| AAGTGCTG | -0.337 |
| CGCTATCC | 0.0597 |
| AGGTCTAC | -0.231 |
| GTATATTA | -0.0407 |
| ACTCATTC | 0.0349 |
| TCTCCAAA | -0.197 |
